# The campaign covered roughly 360,000 compounds. About 520 (0.14%) were called active. This list was built around the results that the source calls inconclusive (neither active nor inactive); the mix of calls is not that of the screen. Calls follow the shape of the dose curve; as a rule, active = well fitted inhibition curve with a large enough effect; inconclusive = small, poorly fitted or top-dose-only effect; inactive = no such curve, though single readings can be large or run the other way. No potency is given beside an inconclusive call; the fits are too rough.
# Biological target: Rap guanine nucleotide exchange factor 3 (Homo sapiens) (UniProt O95398)
# Assay: qHTS for Antagonist of cAMP-regulated guanine nucleotide exchange factor 3 (EPAC1): primary screen; also: nearly all actives have a fitted effect of over 50% in size;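 as to activity change, negative = inhibition: plate controls were vehicle for no effect and positive control for full effect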
# Conditions: EPAC1 GEF assay, Rap1b-BODIPY-GDP exchange fluorescence; activity change, negative = inhibition: at 115 µM (top of the series)
# Potency is read from the fitted curve at half-maximal effect; tags tell the direction and shape of the fitted curve.
# Sequence of UniProt O95398 (O95398 whole entry, looked up): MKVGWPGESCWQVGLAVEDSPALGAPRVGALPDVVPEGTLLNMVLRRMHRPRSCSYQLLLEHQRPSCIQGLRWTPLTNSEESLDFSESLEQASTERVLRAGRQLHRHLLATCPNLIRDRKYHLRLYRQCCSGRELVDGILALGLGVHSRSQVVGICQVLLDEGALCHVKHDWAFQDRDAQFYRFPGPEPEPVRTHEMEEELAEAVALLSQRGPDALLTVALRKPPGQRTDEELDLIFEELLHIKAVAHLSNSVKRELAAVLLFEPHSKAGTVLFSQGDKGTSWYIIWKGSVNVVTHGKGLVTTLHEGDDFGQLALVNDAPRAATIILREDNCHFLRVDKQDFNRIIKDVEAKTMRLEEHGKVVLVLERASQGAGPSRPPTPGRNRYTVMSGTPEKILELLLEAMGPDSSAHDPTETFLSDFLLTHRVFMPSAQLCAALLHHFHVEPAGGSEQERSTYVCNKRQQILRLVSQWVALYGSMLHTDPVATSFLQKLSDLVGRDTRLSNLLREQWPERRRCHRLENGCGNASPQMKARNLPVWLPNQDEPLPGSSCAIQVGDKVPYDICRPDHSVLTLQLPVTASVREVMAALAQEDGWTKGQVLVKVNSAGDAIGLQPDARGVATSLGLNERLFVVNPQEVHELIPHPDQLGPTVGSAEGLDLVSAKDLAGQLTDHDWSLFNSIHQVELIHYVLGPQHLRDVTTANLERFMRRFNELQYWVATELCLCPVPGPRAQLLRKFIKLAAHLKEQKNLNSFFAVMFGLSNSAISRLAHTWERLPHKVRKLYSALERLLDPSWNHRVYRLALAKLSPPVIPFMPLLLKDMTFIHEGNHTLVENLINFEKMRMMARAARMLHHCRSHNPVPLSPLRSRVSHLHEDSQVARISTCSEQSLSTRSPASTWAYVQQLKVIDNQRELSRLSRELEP
SMILES,"activity change, negative = inhibition",Potency
C=CCc1cc(C)ccc1OCC(O)CN1CCN(c2ccccc2)CC1 (configuration not stated),inactive: -2.78%,
O=c1cc(O)c2c(=O)n(Cc3ccccc3)c3ccccc3c2o1,,"inconclusive [inhibitor, partial curve, poor fit]"
S=c1[nH]nc(-c2ccc(Cl)cc2Cl)n1-c1ccccc1,,"inconclusive [inhibitor, partial curve, poor fit]"
Cc1ccc(Sc2ncccc2COC(=O)Nc2c(C)cccc2C)cc1,,"inconclusive [inhibitor, partial curve]"
CCOC(=O)c1c(C)[nH]c(C(=O)COC(=O)CCC(=O)c2ccc3c(c2)OCCO3)c1C,,"inconclusive [inhibitor, partial curve]"
COCCNC(=O)c1cc(-c2ccc(-c3ccccc3)cc2)nc2ccccc12,,"inconclusive [inhibitor, single point]"
O=C(CN(CCc1ccccc1)C(=O)CN1C(=O)COc2ccccc21)NCc1ccco1,inconclusive: 0.293% [inhibitor],
COc1ccccc1C(=O)NCC(=O)N=Nc1c(O)n(C(C)C)c2ccccc12,,"inconclusive [inhibitor, partial curve]"
COC(=O)c1sc(-c2ccccc2)cc1NC(C)=O,,"inconclusive [inhibitor, single point]"
CC(=O)N(C(C)=O)c1ccc2c(c1)OCCO2,,"inconclusive [inhibitor, single point]"
CS(=O)(=O)N(Cc1cc2ccccc2[nH]c1=O)C1CCCCC1,inactive: -15%,
N/C(=N\OC(=O)c1ccc(Br)o1)c1cccnc1,,"inconclusive [inhibitor, single point]"
C#CCOCCOCCOCCNc1nc(N2CCN(C(=O)CCCCCCCCCCNC(=O)[C@H]([C@@H](C)CC)n3cc(CCCCCN)nn3)CC2)nc(N2CCN(C(=O)CCCCCCCCCCNC(=O)[C@@H]([C@H](C)O)n3cc(C)nn3)CC2)n1,,"inconclusive [inhibitor, partial curve]"
COc1ccccc1/C=C1\SC(=S)N(CCC(=O)Nc2ccc(C(=O)O)c(O)c2)C1=O,,active: 50.1 µM
CCc1nn(C(C)C(=O)N2CCc3ccccc3C2)c(=O)c2cc3occc3n12 (configuration not stated),,"inconclusive [inhibitor, single point]"
COc1ccc2[nH]c(C(=O)O)c(CCNC(=O)/C=C/c3ccc(O)c(OC)c3)c2c1,inactive: 1.09%,
COc1ccc2c(COC(=O)[C@H](C)NS(=O)(=O)c3ccccc3F)cc(=O)oc2c1,inactive: -12.3%,
Cc1cccnc1NC(=O)CCc1nnc2ccc(NCc3ccco3)nn12,inactive: 19.3%,
Nc1cc(-c2ccncc2)c[nH]c1=O,,"inconclusive [inhibitor, single point]"
COC(=O)[C@]12CCCCC=C1N(CCc1ccc(OC)c(OC)c1)C(=O)[C@H](CC(=O)N1CCN(C(=O)c3ccco3)CC1)C2,inactive: -18.5%,
Cc1ccc(C)c(NS(=O)(=O)c2ccc3c(c2)NC(=O)CCS3)c1,,"inconclusive [inhibitor, partial curve]"
Cc1ccc2nc(N3C(=O)C(O)=C(C(=O)c4ccc(C)o4)C3c3ccc(O)cc3)sc2c1 (configuration not stated),,"inconclusive [inhibitor, partial curve]"
CC(=O)NCCC(=O)N1CCCC(C(=O)c2ccc3c4c(cccc24)CC3)C1 (configuration not stated),,"inconclusive [inhibitor, single point]"

SMILES,"activity change, negative = inhibition",Potency
O=C(Nc1ccc2c(c1)OCO2)c1cc(-c2cccnc2)nc2ccccc12,inactive: 7.98%,
CCCC1(c2ccccc2)NC(=O)N(CC(=O)Nc2cc(OC)cc(OC)c2)C1=O (configuration not stated),,"inconclusive [inhibitor, partial curve]"
COC(=O)c1cc(Sc2cccc(Cl)c2Cl)ccn1,,"inconclusive [inhibitor, partial curve, poor fit]"
C/C=C\C=C\C(=O)N1CC2(CC(c3cccc(NC(=O)/C(C)=C\C)c3)=NO2)C[C@H]1C(N)=O (some centres not stated),,"inconclusive [inhibitor, partial curve]"
O=C(CNC1CCCCCC1)c1cccs1,,"inconclusive [inhibitor, single point]"
Cc1ccc(CONC(=O)c2cccc(C)c2)cc1,inactive: -28.4%,
O=C(/C=C/c1ccccc1Cl)OCC(=O)c1ccc[nH]1,inconclusive: -31.3% [inhibitor],
C=CCN=C1CC(C)(C)CC(=O)/C1=C(/O)CCC(=O)OC,,"inconclusive [inhibitor, single point]"
O=C(/C=C/c1ccco1)Nc1cccc2cccnc12,,"inconclusive [inhibitor, partial curve]"
CCOC(=O)N1CCN(CC(=O)Nc2cc(OCC)ccc2OCC)CC1,inactive: 4.83%,
CCCNC(=O)C1(C)CCCN(Cc2ccc(Oc3ccccc3)cc2)C1 (configuration not stated),,"inconclusive [inhibitor, partial curve]"
CC(=O)c1cccc(NC(=O)CCCSc2ccccc2)c1,,"inconclusive [inhibitor, partial curve]"
CC1Cn2c(nnc2-c2cccc(Cl)c2)S1 (configuration not stated),,"inconclusive [inhibitor, full curve, poor fit]"
Cc1cc(C)cc(NC(=O)CSc2nnc(-c3ccccc3C)o2)c1,inactive: 4.78%,
Cc1ccc(S(=O)(=O)N2CCN(C(=O)c3ccc4c(c3)OCO4)CC2)cc1,,"inconclusive [inhibitor, single point]"
CCOC(=O)c1cc2c(nc1N)CC(C)(CC)OC2 (configuration not stated),,"inconclusive [inhibitor, partial curve, poor fit]"
CC(=NNC(=S)N1CCCCC1)c1ccccn1,,"inconclusive [inhibitor, partial curve]"
S=C(Nc1nc2c(s1)CCCC2)NC1CC1,inactive: -7.42%,
CCOC(=O)NC(C(Cl)(Cl)Cl)S(=O)(=O)c1ccccc1 (configuration not stated),,"inconclusive [inhibitor, single point]"
O=[N+]([O-])c1ccc(O)c(Nc2c([N+](=O)[O-])ccc3nonc23)c1,,"inconclusive [inhibitor, full curve]"
O=C(NNc1ccccc1Cl)C(O)(c1cccc(C(F)(F)F)c1)c1cccc(C(F)(F)F)c1,,"inconclusive [inhibitor, full curve]"
COc1cc(C=CC(=O)c2ccccc2)cc(OC)c1OC,,"inconclusive [inhibitor, full curve]"
O=c1c2ccccc2c(C=NCCO)c(O)n1-c1ccccc1,,"inconclusive [inhibitor, single point]"

SMILES,"activity change, negative = inhibition",Potency
COCCn1c(=S)[nH]c2sc3c(c2c1=O)CCC(C)C3 (configuration not stated),,"inconclusive [inhibitor, single point]"
CCOc1ccc(-n2c(C)cc(/C=C3/C(=N)N4C(=NC3=O)SN=C4S(C)(=O)=O)c2C)cc1,,"inconclusive [inhibitor, partial curve]"
Cc1cccc(-n2nc3c(c2NC(=O)c2c(F)cccc2F)CS(=O)(=O)C3)c1C,,"inconclusive [inhibitor, single point]"
CCCNc1c(F)c(F)c2c(C)c3ccccc3nc2c1F,,"inconclusive [inhibitor, partial curve]"
Clc1ccc2nc(-c3ccc(Cl)nc3)[nH]c2c1,,"inconclusive [inhibitor, partial curve, poor fit]"
CN(C)/C=C1\N=C(c2cccnc2Oc2ccc(Cl)cc2)OC1=O,,"inconclusive [inhibitor, full curve, poor fit]"
O=c1c2ccccc2ncn1-c1ccc([N+](=O)[O-])cc1Cl,inactive: -1.56%,
Cc1ccccc1C1C(C#N)=C(N)N(N(C)C)C2=C1C(=O)CC(C)(C)C2 (configuration not stated),inactive: -13.8%,
CC1(C)CC(=O)C2=C(C1)NC(=S)C(C#N)C21CCCCC1 (configuration not stated),inactive: 0.466%,
N#Cc1ccc(CN(Nc2ccccc2)c2ccccc2)cc1,inactive: 5.19%,
CCOC(=O)C1C(=O)CC(C)(O)C(C(=O)OCC)C1c1ccc(Br)o1 (configuration not stated),,"inconclusive [inhibitor, partial curve]"
C=CC(=O)N1C/C(=C/c2ccccc2)C(=O)/C(=C\c2ccccc2)C1,,"inconclusive [inhibitor, full curve, poor fit]"
N#CCc1ccc(OC(=O)c2ccncc2)cc1,,"inconclusive [inhibitor, single point]"
Cc1ccc(C(C)NC(=O)c2cccs2)cc1C (configuration not stated),,"inconclusive [inhibitor, full curve, poor fit]"
CC(=O)Nc1ccc(S(=O)(=O)Oc2ccc(C=O)cc2)cc1,,"inconclusive [inhibitor, partial curve]"
Cn1c(-c2ccc3c(c2)OCO3)c(C(=O)O)c(=O)c2ccccc21,inconclusive: -5.94% [inhibitor],
Cc1ccc(C)c(NC(=S)NC(NC(=O)N(C)C)C(Cl)(Cl)Cl)c1 (configuration not stated),inactive: 9.64%,
N=C1C(c2nc(-c3cccc([N+](=O)[O-])c3)cs2)=C(O)CN1NC(=O)c1ccco1,,"inconclusive [inhibitor, partial curve]"
Cc1ccc(N=C2NC(=O)/C(=C/c3cccn3C)S2)cc1,inactive: 6.16%,
O=C(COC(=O)c1ccc([N+](=O)[O-])s1)NNC(=O)c1ccccc1,,"inconclusive [inhibitor, partial curve, poor fit]"
O=C(OCC(=O)N1CCN(C(=O)c2ccco2)CC1)c1cc(-c2ccc(Cl)c(Cl)c2Cl)nc2ccccc12,inactive: -15.4%,
